# Some of the results follow.
# T1: UNK ZnF1-6 (called full-length) (human, UniProt Q9C0B0 30-357)
# T1 sequence: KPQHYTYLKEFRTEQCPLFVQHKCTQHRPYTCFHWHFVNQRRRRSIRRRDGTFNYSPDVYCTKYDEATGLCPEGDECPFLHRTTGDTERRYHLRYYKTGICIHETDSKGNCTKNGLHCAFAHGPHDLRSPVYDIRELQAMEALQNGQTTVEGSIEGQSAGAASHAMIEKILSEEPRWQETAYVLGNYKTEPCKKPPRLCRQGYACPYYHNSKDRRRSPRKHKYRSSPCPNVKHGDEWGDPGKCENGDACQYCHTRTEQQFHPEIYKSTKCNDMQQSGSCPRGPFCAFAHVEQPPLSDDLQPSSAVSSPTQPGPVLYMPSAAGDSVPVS
# B1: chr5:116443554:116446612:-|three_prime_utr|ENSG00000092421|control|control|control (ssRNA)
# RNA: GGGAGUUCUACAGUCCGACGAUCCCGCCAGUGUUACAGCUUUCUGUUGCAGCAGAUAAAUGCCAUGUUGGGCAACUAUGUCAUAGAUUUCUGCUCCUCCUCUCUUUUAAUGAAAUAACGUGACCGUUAACGCAAGUAACUCUUCAACAGAGGAUUGAGCAUCA
# B2: chr1:94983078:94983306:-|CDS|ENSG00000172339|control|control|control (ssRNA)
# RNA: GGGAGUUCUACAGUCCGACGAUCCCUUGGGAUACUAGGAAUAAAGAAAGUGAUCAUUGUCUACGUUGAAAGCAUCUGCCGUGUAGAAACGUUAUCCAUGUCCGGAAAGAUUCUGUUUCAUCUCUCAGAUUACUUCAUUGUUCACAACAGAGGAUUGAGCAUCA
# B3: chr11:62152232:62152344:+|3pUTR|ENSG00000149503|unk|total|mutant (ssRNA)
# RNA: GGGAGUUCUACAGUCCGACGAUCUGCUCUGUAAACCGUUGUUUUAAUUCCGCUGAAUGUCCGCAUUUCCGUCUUUGGCAUUUCCGCGUUUGGGAGGCCGAUUAAUAAAGUAUAUUCCUUCAAGCCUGCUGUUGAUACCAUGAACAACAGAGGAUUGAGCAUCA
# B4: chr7:73478007:73478118:-|CDS|ENSG00000009954|unk|total|mutant (ssRNA)
# RNA: GGGAGUUCUACAGUCCGACGAUCAAAGGCACGCAGAAGAUGACACGAGCCCCACGGAAUUCUGGGGGUACACCCCGGACCUCCCGUAAACCUCAUAAACAUCUGCCUCCUGCAGCCCUACACCUCAUUGCAUACUACAAAGAACAACAGAGGAUUGAGCAUCA
# B5: chr12:130875966:130876013:+|3pUTR|ENSG00000132341|msi1_unk|FALSE|overlapping (ssRNA)
# RNA: GGGAGUUCUACAGUCCGACGAUCGAUGAGGAUGAUGACCUGUGAGAAUGAAGCUGGAGCCCAGCGUCAGAAGUCUAGUUUUAUAGGCAGCUGUCCUGUGAUGUCAGCGGUGCAGCGUGUGUGCCACCUCAUUAUUAUCUAGCUCAACAGAGGAUUGAGCAUCA
# B6: chr7:18026828:18027782:-|CDS|ENSG00000229937|control|control|control (ssRNA)
# RNA: GGGAGUUCUACAGUCCGACGAUCUGGAAUCUUUUCUGGCCCAGCCAUUUCUCGCAUCAACACUGCAUGCUUUGAAGCAGUGGUAGUCACCAAUACCAUACCUCAAGAUGAGAAGAUGAAGCAUUGCUCCAAAAUACGAGUAAUCAACAGAGGAUUGAGCAUCA
# B7: chr12:6655637:6655878:-|three_prime_utr|ENSG00000111653|control|control|control (ssRNA)
# RNA: GGGAGUUCUACAGUCCGACGAUCUCACUUGGUUUCUUCAAAGAUGUCUGUUGGAGCUAUUCCCAUACCCACUGAAGGAUCUGUAGUCUUGUCUUCAUUCUAUGUAGCCAUGUUCAAGGAUGUAACAGACUGGUUUUGAGAUACCAACAGAGGAUUGAGCAUCA
# B8: chr18:21869459:21869560:+|3pUTR|ENSG00000101752|msi1|total|mutant (ssRNA)
# RNA: GGGAGUUCUACAGUCCGACGAUCUAAAAGAUGGUCUUCCGUGCACGUGUAUCAUUAUAUACACGUUUUAAAGUCAUAUUGCUCCGCUUGUUAAUAAUGAUUCUGCAUGUGUGCUGGGUUUGGGUAAUUCUUUAAAGGAAGUUUCAACAGAGGAUUGAGCAUCA
# B9: chr5:138934237:138934351:+|3pUTR|ENSG00000044115|msi1_unk|FALSE|overlapping (ssRNA)
# RNA: GGGAGUUCUACAGUCCGACGAUCUUUCCAAGAACAUAGUUUAAGUUGAUUAAAAAUGCUUUUAGAAUGCAGGAGCCUACUUCUAGCUGUAUUUUUUGUAUGCUUAAAUAAAAAUAAAAAUUCAUAACCAAAGAGAAUCCCACACAACAGAGGAUUGAGCAUCA
# B10: ENSG00000198589:be:win_8401|CDS|ENSG00000198589|bound_else_gene|NA|bound_elsewhere_windowed (ssRNA)
# RNA: GGGAGUUCUACAGUCCGACGAUCAAGCAGCUCUUUGCCUAUCCAGGAUGUGACGCUGGAAUCCGGGCCAUGGCGCUGUCUUACGACCAGAGGUGCAUCAUUUCUGGCAUGGCUUCAGGAAGCAUUGUGCUAUUUUACAACGACCAACAGAGGAUUGAGCAUCA
# B11: chr2:30159184:30159288:+|3pUTR|ENSG00000119801|unk|FALSE|bound_elsewhere (ssRNA)
# RNA: GGGAGUUCUACAGUCCGACGAUCAAAAUCUGGGCUGUUAGAGUGAAAAAGUGUGUUUUAUGUCAAUUGUGAAAGGAAAAUGUUAGGAGUAUGGUUUUUAAACUUGGGCUUCAUUUUAAACUUUUUUUUUUAAACCCAGUUAUUCAACAGAGGAUUGAGCAUCA
# B12: ENSG00000198589:be:win_8051|CDS|ENSG00000198589|bound_else_gene|NA|bound_elsewhere_windowed (ssRNA)
# RNA: GGGAGUUCUACAGUCCGACGAUCGCCAUGACUAUGAGGUCACAUGUGCUGCGGUGUGUGCGGAGCUAGGCCUGGUGUUGAGUGGUUCACAAGAAGGACCAUGUCUCAUACAUUCCAUGAAUGGAGACUUGUUGAGGACCUUGGCAACAGAGGAUUGAGCAUCA
# B13: chr12:79773885:79773986:-|3pUTR|ENSG00000058272|msi1|FALSE|unique (ssRNA)
# RNA: GGGAGUUCUACAGUCCGACGAUCGGUUAUUUAUUCUUUGUAUCUAAAACUGAACAGCUACUGUGCUAUAUUGAUUUUAUUGGUAGUAUUGAGCAGACCUUGUUUCUGCAUGAAACUAGUUGCAAAACCCACUAUUUUGGAAAUCAACAGAGGAUUGAGCAUCA
# B14: chr2:182778012:182778113:+|3pUTR|ENSG00000077232|msi1|total|mutant (ssRNA)
# RNA: GGGAGUUCUACAGUCCGACGAUCUAAAGAUAUAUGUGUUCAUGUAUUUUCUGAAAUUGCUUUCACCGAAAUUUUCCCACUGACCGUUGAUUUUUGAGGCAUCUAAUAUUUACAUAUUUGCCUUCUGAACUUUGUUUUGACCUGCAACAGAGGAUUGAGCAUCA
# B15: chr4:70820284:70820384:-|3pUTR|ENSG00000132463|msi1_unk|FALSE|overlapping (ssRNA)
# RNA: GGGAGUUCUACAGUCCGACGAUCUGAACUGGUAUGGUUUGGCAGAAUAGUUUUAAAUUUUGCUGUAUUUGAUUACUUAGAGAUAGGAAUUUUUAAAAAUCAAAACAAAAAAUACCACAGCUUAGUGUAAAUGACAAUUUGGCGCAACAGAGGAUUGAGCAUCA
# B16: chr4:123402332:123402450:+|CDS|ENSG00000164056|unk|FALSE|unique (ssRNA)
# RNA: GGGAGUUCUACAGUCCGACGAUCGACGAAGGGGAUUCCUAUUCAGAUAAUCCUUGCUCCUGUUCACAAUCACACUGCUGCUCUAGAUACCUGUGUAUGGGAGCCAUGUCUUUAUUUUUACCUUGCUUACUCUGUUAUCCUCCUCAACAGAGGAUUGAGCAUCA
# B17: chr1:17068045:17068226:-|3pUTR|ENSG00000117115|msi1|total|mutant (ssRNA)
# RNA: GGGAGUUCUACAGUCCGACGAUCCUCCUUCCACUGCCUUGACUUUCUUCCUUUUUAUUCCUGGUGCCAUCUGUCCAGGCAGCCCGACAAGAACUUGUUCGCCAGCAGCCAGAUUCAGGCCUUCCCAGGGGCAUAAUAAGUGACCAACAGAGGAUUGAGCAUCA
# B18: chr7:149003559:149003660:-|3pUTR|ENSG00000155660|msi1|total|mutant (ssRNA)
# RNA: GGGAGUUCUACAGUCCGACGAUCUUUUAUACUUUGGUGUUUCACUUCAUGCUCUGAAUACUGAAUAACCAUGAAUGACUGAACCGUUCCGUCCAGAUUUUUACAGAGGAUACAUCUAUUUUUAUCAUUAUUUGGGGUUUGAAACAACAGAGGAUUGAGCAUCA
# B19: ENSG00000124766:be:win_301|CDS|ENSG00000124766|bound_else_gene|NA|bound_elsewhere_windowed (ssRNA)
# RNA: GGGAGUUCUACAGUCCGACGAUCAAAGACAGCGACAAGAUCCCUUUCAUUCGAGAGGCGGAGCGGCUGCGCCUCAAGCACAUGGCUGACUACCCCGACUACAAGUACCGGCCCAGGAAGAAGGUGAAGUCCGGCAACGCCAACCAACAGAGGAUUGAGCAUCA
# B20: chr15:38488102:38490688:-|three_prime_utr|ENSG00000172575|control|control|control (ssRNA)
# RNA: GGGAGUUCUACAGUCCGACGAUCUACUCUGAAAGCAGAUAAUGAUGCCCUAAAGAUCCAACUGAAAUAUGCACAGAAGAAAAUAGAAUCCCUCCAGCUUGAAAAAAGCAAUCAUGUCUUAGCUCAAAUGGAGCAGGGUGACUGCAACAGAGGAUUGAGCAUCA
# B21: chr10:128108355:128108456:-|CDS|ENSG00000148773|msi1|FALSE|unique (ssRNA)
# RNA: GGGAGUUCUACAGUCCGACGAUCAGUGGACACUCCAACAAGCACAAAGCAAUGGCCUAAGAGAAGUCUCAGGAAAGCAGAUGUAGAGGAAGAAUUCUUAGCACUCAGGAAACUAACACCAUCAGCAGGGAAAGCCAUGCUUACCAACAGAGGAUUGAGCAUCA
# B22: chr7:5527443:5527567:-|3pUTR|ENSG00000075624|msi1_unk|total|mutant (ssRNA)
# RNA: GGGAGUUCUACAGUCCGACGAUCCAUCCCCCAAAGUUCACAAUGUGGCCGAGGACUUUGAUUGCACAUUGUUGUUUUUUUAACCGUCAUUCCAAAUAUGAGAUGCGUUGUUACAGGAAGUCCCUUGCCAUCCUAAAAGCCACCCAACAGAGGAUUGAGCAUCA
# Target: T1, UNK ZnF1-6 (called full-length)
# Test: nsRBNS (natural sequence RNA bind-n-seq); RBNS binding buffer (assumed for nsRBNS): 25 mM Tris pH 7.5, 150 mM KCl, 3 mM MgCl2, 0.01% Triton X-100, 500 ug/ml BSA, 20 U/ml SUPERase-In, 4 C; UNK is unkempt and MSI1 is Musashi-1; names of the RNAs are library labels; protein concentration not given here; high values mean tight binding
row,Binder,binding signal
1,B1,0.437 enrichment R
2,B2,0.241 enrichment R
3,B3,0.494 enrichment R
4,B4,0.485 enrichment R
5,B5,0.772 enrichment R
6,B6,0.579 enrichment R
7,B7,0.291 enrichment R
8,B8,0.416 enrichment R
9,B9,0.932 enrichment R
10,B10,0.545 enrichment R
11,B11,1.13 enrichment R
12,B12,0.748 enrichment R
13,B13,0.729 enrichment R
14,B14,0.382 enrichment R
15,B15,1.68 enrichment R
16,B16,0.557 enrichment R
17,B17,0.718 enrichment R
18,B18,0.574 enrichment R
19,B19,0.734 enrichment R
20,B20,0.685 enrichment R
21,B21,0.762 enrichment R
22,B22,0.534 enrichment R

# — publication PMC12136788
